# Reference: publication PMC12040169 (PLOS Biology, 2025)
# The list shows a part of the results.
# Test system: T1, C. trachomatis L2/434/Bu expressing GFP (CTL2-GFP)
# T1 construct: L2/434/Bu GFP intracellular growth in HeLa cells
# Design: species or system HeLa; C. trachomatis total inclusion area by high-content imaging, normalised to DMSO
# Details: total inclusion area; 28.5 h, 10 µM; inhibitor
# Summary of the method: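 High-content imaging followed the bulk GFP/resorufin measurement: fixed, Hoechst-stained cells were scored for GFP inclusions and host nuclei per well. Total inclusion area and count served as growth proxies, nuclei number as the viability proxy. MIC calculation matched the bulk assay.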
row,Structure (SMILES),% of control remaining
1,COc1cc(C=CC(=O)O)ccc1OCC(=O)N1CCN(CC(=O)NC(C)(C)C)CC1 [CBK296987],82.1747
2,O=C(c1ccc(N2CC=CCC2)nc1)N1CCC(N2CCOCC2)CC1 [CBK307334],98.5115
3,CN(C)CCNC(=O)c1cccc(Oc2ccccc2)c1 [CBK270310],85.4326
4,CC(=O)N1C[C@@H](c2ccsc2)[C@@H]2CN(Cc3ccccc3)CC[C@@H]21 [CBK284585],82.6257
5,Cc1cc(-c2nnc(SCC(=O)N3CCCCC3)o2)no1 [CBK268731],107.442
6,O=C(CSc1nc2ccccc2c2nc3ccccc3n12)Nc1cccc(Cl)c1 [CBK267872],112.919
7,C=CCn1c(Cc2csc(NC(=O)c3cccc([N+](=O)[O-])c3)n2)n[nH]c1=S [CBK295339],105.739
8,Cc1cccc(-c2ncc(NC(=O)C3CC3)nc2-c2cccnc2)c1 [CBK037134],74.3256
9,CC1(C)OC(=O)C(=CNC(CCC(=O)O)C(=O)O)C(=O)O1 (centres unmarked) [CBK263510],100.761
10,COC(=O)[C@H]1CN(C(=O)c2cccs2)C[C@@H]1c1ccccc1F [CBK283775],87.1011
11,COc1ccc(C(=O)O)cc1N1C(=O)CC(c2c(C)nn(-c3ccccc3)c2N)C1=O (centres unmarked) [CBK291120],97.6433
12,CC(C)S(=O)(=O)N1CCC(n2c(=O)[nH]c3ccccc32)CC1 [CBK149693],96.3814
13,CCC(CC)C(=O)Nc1ccc([C@@H](O)[C@H]2COCC(=O)N2CC)cc1 [CBK289684],105.044
14,Cc1cc(C(=O)N(C)C2CCCCC2)no1 [CBK057375],83.8785
15,CC(=O)N1C[C@H](O)C[C@H]1C(=O)N1CC[C@H]2NC(=O)[C@H](Cc3ccccc3)NC(=O)C3(C/C=C/C[C@H]2C1)CCOCC3 [CBK292204],97.8435
16,COc1ccc(CCOc2nccnc2-c2ccsc2)cc1 [CBK106775],16.067
17,O=C(Cc1ccc(F)cc1F)Nc1ccc2cc[nH]c2c1 [CBK160044],145.229
18,CC(C)(C)c1ccc(S(=O)(=O)N/N=C\c2ccc(Cl)cc2Cl)cc1 [CBK264759],103.669
19,CCOc1ccc2nc(NS(=O)(=O)c3cc(C(=O)O)c(Cl)cc3Cl)sc2c1 [CBK299789],114.947

row,Structure (SMILES),% of control remaining
1,CCOC(=O)c1c(NC(=O)Cn2nc(C(F)(F)F)c(Cl)c2C)sc2c1CCCC2 [CBK263019],98.4892
2,O=C(c1cc(CO)ccn1)N(Cc1ccccn1)CC1CCCO1 (centres unmarked) [CBK306820],72.7319
3,S=C1NC2c3ccccc3OC3(CCCCC23)N1 (centres unmarked) [CBK288506],31.9616
4,Cc1ccc(-n2c(SCC(=O)N3CCC(C(=O)O)CC3)nc3ccccc3c2=O)cc1C [CBK297540],91.5702
5,N#CCCCN1CCC2(CC1)CN(CC(N)=O)c1ccccc12 [CBK137024],83.6123
6,COc1ccccc1Nc1nc(N)nc(CSc2nccn2C)n1 [CBK266710],108.802
7,CC(=O)Nc1c(O)nc(SCC(=O)Nc2ccc(C(C)=O)cc2)[nH]c1=O [CBK268527],99.3328
8,COc1ccc(C(C)C)cc1-c1cncc(NC(C)CCCC(C)(C)O)n1 (centres unmarked) [CBK065521],92.1483
9,CC(=O)NCCNC(=O)c1cc(Br)cnc1NCCOc1ccccc1 [CBK076232],67.1113
10,Fc1ccc(C2CCCN(CCCOc3cccc(F)c3)C2)cc1 (centres unmarked) [CBK016228B],9.534
11,O=C(CSc1nc2ccccc2[nH]1)c1ccccc1 [CBK261298],101.298
12,Cn1nc(NC(=O)Cc2ccsc2)c2c(N3CCOCC3)cccc21 [CBK307023],46.0449
13,O=C(N/N=C\c1ccccc1O)c1nc([N+](=O)[O-])n[nH]1 [CBK261475],95.2328
14,Cc1ccc(S(=O)(=O)NCC(=O)N2CCOCC2)cc1[N+](=O)[O-] [CBK050597],99.4828
15,Cc1cc(-c2cn(C)nc2C2CCCCN2C(=O)C2CCC2)on1 (centres unmarked) [CBK283403],102.649
16,CCn1cc(CN2C3CCC2CC(O)(c2ccccc2F)C3)cn1 (centres unmarked) [CBK282662],116.774
17,Fc1ccc(Oc2nccnc2N2CCN(Cc3ccc(Cl)cc3)CC2)cc1 [CBK083010T],125.178
18,CCC(=O)N1CC[C@H]2NC(=O)c3ccccc3OCC/C=C/C[C@H]2C1 [CBK291999],125.844
19,COc1cc(/C=C(/C#N)c2ccc(C(=O)O)cc2)ccc1OCc1cccc([N+](=O)[O-])c1 [CBK269057],87.6414
